The assay has as its target T1, NADPH-dependent cytochrome P450 oxidoreductase (CPR), full-length human, expressed from pPORh1 (human, UniProt P16435 1-677).
T1 construct: printed in three-letter code as Gly-Iso-Pro-Gly-Ser; human NADPH-dependent cytochrome P450 reductase (CPR), full length with its N-terminal membrane anchor domain; Expressed with an N-terminal OmpA leader for periplasmic membrane targeting; also called cytochrome P450 reductase; full-length CPR; source: E. coli C41(DE3), solubilised from membranes with Triton X-100, purified (2',5'-ADP Sepharose …)
T1 sequence: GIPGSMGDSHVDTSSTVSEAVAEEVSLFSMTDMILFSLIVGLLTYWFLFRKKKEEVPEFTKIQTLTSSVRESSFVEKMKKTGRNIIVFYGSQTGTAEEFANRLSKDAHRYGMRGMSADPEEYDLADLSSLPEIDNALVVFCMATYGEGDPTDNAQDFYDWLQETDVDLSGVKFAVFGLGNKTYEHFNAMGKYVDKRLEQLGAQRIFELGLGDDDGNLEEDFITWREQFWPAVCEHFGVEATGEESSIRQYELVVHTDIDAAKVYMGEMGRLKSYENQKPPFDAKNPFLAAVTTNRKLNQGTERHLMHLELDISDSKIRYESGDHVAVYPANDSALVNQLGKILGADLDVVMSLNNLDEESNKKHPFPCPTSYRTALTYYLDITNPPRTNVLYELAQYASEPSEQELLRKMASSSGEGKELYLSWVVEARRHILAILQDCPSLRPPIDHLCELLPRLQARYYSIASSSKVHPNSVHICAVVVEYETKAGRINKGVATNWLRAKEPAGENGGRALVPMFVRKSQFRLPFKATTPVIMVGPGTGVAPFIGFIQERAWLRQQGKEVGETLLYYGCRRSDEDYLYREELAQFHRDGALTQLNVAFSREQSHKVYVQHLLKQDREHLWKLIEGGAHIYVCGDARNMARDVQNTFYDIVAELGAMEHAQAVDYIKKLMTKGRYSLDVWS
The assay is described as follows: pull-down + SEC; CPR and CYP3A4 premixed 30-60 min at room temperature, then assembled with MSP1E3D1 (His-tag removed) and lipid into nanodiscs; Ni-affinity enrichment via the C-terminal His-tag of CYP3A4, then gel filtration; fractions resolved by SDS/PAGE. Particulars: both partners purified.

B1: cytochrome P450 3A4 (CYP3A4), human, C-terminally His-tagged, expressed from pB84 (enzyme, UniProt P08684 1-503, looked up)
chain: MALIPDLAMETWLLLAVSLVLLYLYGTHSHGLFKKLGIPGPTPLPFLGNILSYHKGFCMFDMECHKKYGKVWGFYDGQQPVLAITDPDMIKTVLVKECYSVFTNRRPFGPVGFMKSAISIAEDEEWKRLRSLLSPTFTSGKLKEMVPIIAQYGDVLVRNLRREAETGKPVTLKDVFGAYSMDVITSTSFGVNIDSLNNPQDPFVENTKKLLRFDFLDPFFLSITVFPFLIPILEVLNICVFPREVTNFLRKSVKRMKESRLEDTQKHRVDFLQLMIDSQNSKETESHKALSDLELVAQSIIFIFAGYETTSSVLSFIMYELATHPDVQQKLQEEIDAVLPNKAPPTYDTVLQMEYLDMVVNETLRLFPIAMRLERVCKKDVEINGMFIPKGVVVMIPSYALHRDPKYWTEPEKFLPERFSKKNKDNIDPYIYTPFGSGPRNCIGMRFALMNMKLALIRVLQNFSFKPCKETQIPLKLSLGGLLQPEKPVVLKVESRDGTVSGA
notes: human cytochrome P450 3A4 with its own N-terminal membrane anchor domain; expressed with an OmpA leader that is cleaved off during membrane targeting; source: E. coli K12 JM109, solubilised with CHAPS, purified (Ni-NTA agarose); not shown: His-tag, C-terminal, kept
Regarding B1, the binding result was “binds”.

These data come from PMC5575521, “Liver microsomal lipid enhances the activity and redox coupling of colocalized cytochrome P450 reductase‐cytochrome P450 3A4 in nanodiscs” (The Febs Journal, 2017).
